Assay results reported in the supplement of paper PMC11417369.
Some of the results follow.

The sequences below were run on PfSIP2 AP2 domain 1 (GST-tagged) (assay: gcPBM binding intensity (ln(normalized median fluorescence intensity)); higher = stronger DNA binding).
Procedure, shortened: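 Binding intensity is the highest Masliner-normalised natural-log median intensity over replicate spots in either probe orientation. To obtain it, GST-tagged P. falciparum DNA-binding domains made in E. coli were incubated for 1 h on an Agilent 4 × 180k array of primer-extended double-stranded 36-bp intergenic genomic probes plus negative controls. Detection used Alexa488 anti-GST antibody with scanning at 488 nm.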

| Sequence | gcPBM binding intensity (ln) |
| --- | --- |
| TATTTATTTTTTTTTGTGCACTTAATATAATCTTAC | 10.4 |
| ACACTAACATCATATCGTACATTTGTTAATTTATAA [XGTACX_site8654] | 7.42 |
| TTTTTATTTATATGATACTTATATATATATATATAT [CACACA_negctrl_site462] | 9.5 |
| TTCTTAATATTGCATGCACACTATATAATAATTGAA [CACACA_site4720] | 8.15 |
| TCTTTTAAAAAAATTTGTACATATTTTTTGTATTAT [XGTACX_site67] | 7.22 |
| TGTTCTTTGTTCAGCGCATGTAAAATAAAATAAAAT [TGCATGCA_site629] | 7.47 |
| TTTTTTTTTGAATACAGTACACAAGTGTTAAGTTTA [XGTACX_site7069] | 6.77 |
| GATTGATTATATGTGTGTACTTATATGTTAAAAAAA [XGTACX_site4784] | 7.29 |
| TATGAATATCTATACACACACATATATATACCCACT [CACACA_site4963] | 7.07 |
| GAAAGAATAAAATTTACACACATATAAATATACATA [CACACA_site7125] | 6.89 |
| AAAGGTGTCATATATGCACACAAAAGTAACACGCAC [CACACA_site8051] | 8.81 |
| TTTATTCTTGAGTATTGTACATATGTGTTTGTATAT [XGTACX_site5706] | 7.32 |
| AGGAGGATGCATATGGCACACATTATGAAACTGTCG [CACACA_site299] | 7.23 |
| TATATATATATATGTAGTACTCAATATTGTAGATTA [XGTACX_site3856] | 9.64 |
| AAATATATGTATATATGTACATATGTGTGCTATCAT [XGTACX_site1604] | 7.27 |
| TAATTTTTTTTTAATTGTACATGTGAATATATTTCA [XGTACX_site4115] | 6.8 |
| GTTTACATTTTAAGAAGTACAAAATTTATGGTTAAA [XGTACX_site450] | 7.29 |
| ATACATACAAAAATTTGTACATATTTCCAATAATGT [XGTACX_site2658] | 6.96 |
| GAAAAAACGAAAAAAATACACACCTGAAAAGATATG [CACACA_site887] | 6.78 |
| GCCATAATATGACATACACACACAAAAAAAAAAAAA [CACACA_site8353] | 7.07 |
| AAATTTCCATTTGGGTGTACATGTGAAACTACAAAG [XGTACX_site208] | 7.15 |
| AAACAATTGAATAAATGTACAGATACATTTTTTTAA [XGTACX_site5386] | 6.76 |
| TATTTATCTATTTTGTTATATAATAAAATAAAATAA [CACACA_negctrl_site281] | 6.86 |

| Sequence | gcPBM binding intensity (ln) |
| --- | --- |
| AAAAATAAACAAAATTGTACACATTACATACATATA [XGTACX_site966] | 7.01 |
| AAGAAAAGAACAAGAGCATGCACTTAATAAGAATAA [TGCATGCA_site818] | 7.51 |
| TTAATATATTTTAAAAGTACATAATATTATTTTTTA [XGTACX_site3642] | 6.9 |
| AAAAAAAACAGACACACACACATACAAAATATATAT [CACACA_site1449] | 7.13 |
| TTTAAATACAGACATACACACATACACAGACATATA [CACACA_site4460] | 6.97 |
| CTCTATTGTTAAAAGGTGCTTTTATGATTTTATATA [GTGCAC_site9409] | 8.67 |
| ATATTTTTATGTACTTCAAAAAAAAAGAAAAACAAA [CACACA_negctrl_site970] | 7.21 |
| AAGAGGTTAATGAAATGTACACATATATATATATAT [XGTACX_site1861] | 9.61 |
| TATAGTTTTGAAAACAAACACACAAAAAAAAAAAAA [CACACA_site1691] | 6.97 |
| ATAATTTCACAAATAGTGCAAAAATTAGTAAGAATA [GTGCAC_site9648] | 8.51 |
| TTTTATAAATATTATACATGCATAATGATAAAAAAA [TGCATGCA_site927] | 6.88 |
| TATGTAACCTGTTTTACACACCCCCACCCCCCTCTT [CACACA_site319] | 9.18 |
| TATAAGTATTAATACACACACAAAATAATAAAAAAA [CACACA_site3481] | 6.95 |
| AAAAATAAAGGATATACACACTAATTCTATAAATAT [CACACA_site7344] | 6.66 |
| GTCTCGATAATGAAAAGTACAAAATAAAAATAATAA [XGTACX_site6471] | 7.52 |
| TAAAGAATAATACATTCACACAATATTATAAAAATA [CACACA_site5986] | 6.82 |
| TTGTATGAATTTATTTTTATTGATAATTAATATGTA [TGCATGCA_negctrl_site143] | 6.88 |
| TATGATTAATTACCACAATTGACAAAAAAAAAAAAA [CACACA_negctrl_site336] | 6.83 |
| GAAATGTCATATAATAGTACACACATGAAAATATAA [XGTACX_site6838] | 7 |
| ATACAAAAGGGGAATACACACACATATATATATATA [CACACA_site8694] | 9.56 |
| AATAAACATAGATGTACACACATATACAGATATATA [CACACA_site5570] | 7.18 |
| TTGTTCTATATATATGCATGCACGTATGTTAAATTA [TGCATGCA_site659] | 9.51 |
| TCTCATATATTGAATTGTACATATGTTAAAATATAG [XGTACX_site6764] | 7.03 |

| Sequence | gcPBM binding intensity (ln) |
| --- | --- |
| TATTAATTTTTATACGCATGTGTATAGTAATATATA [TGCATGCA_site1010] | 6.81 |
| TTTATTTATCTTTACGCACACACTTGCATGTACAAA [CACACA_site1118] | 7.46 |
| TACCTACCTTTACGGAGTACACAATAATAGTTATAA [XGTACX_site6593] | 7.32 |
| ATATAAAAATAATAGAGTACAAAAAAAAAATGTATA [XGTACX_site7054] | 7.01 |
| GATGATACGATTATCACACATTTATACTTTCTACAT [CACACA_site5669] | 6.91 |
| TGTATACATTATTAAGTGCAAGTAGGGAAAAAAAAA | 8 |
| TAAACATATACACGTACATGCAACGGATTTTTTTTT [TGCATGCA_site70] | 7.09 |
| CAAGAAAAGAAACACACACACATATATATATATATA [CACACA_site3881] | 9.12 |
| TTTTTACTATAAGGGGAAAAAAAAAAAAATAATATA [XGTACX_negctrl_site279] | 6.62 |
| ATATAACTTTTAAAAGCATGCAAATATTTACTCAAT [TGCATGCA_site396] | 7.12 |
| TATATATATATATGTGCACACATAATAAAAAAAAAA [CACACA_site3830] | 9.64 |
| ATATGATTAATTAAGTGTACGTATTTATAATTATAA [XGTACX_site5783] | 7.13 |
| ATTACAATTTTAATAGTGCATTTTTATATATTTCTA [GTGCAC_site9918] | 9.55 |
| GAAGACAATTATATGTGTACATATATATACATATAT [XGTACX_site4630] | 7.2 |
| AGTAGATATTATTATAGTACTTTTTATTTTATATTT [XGTACX_site1551] | 6.87 |
| GGAATTCATATTAATTGTACATTTAAAGATAGATGA [XGTACX_site3279] | 6.99 |
| AAAATTTATGGAAGGTGTACTGTTAATTATGTATAT [XGTACX_site6446] | 6.96 |
| ATATTAAAGATATATACACACATATTTATAAATATA [CACACA_site7127] | 7.13 |
| TAATATGTGGACTTTACACACTTGTTTTAAAATTCT [CACACA_site4605] | 6.76 |
| ATATTTTACATATTTGCACACATATATTTATATACA [CACACA_site855] | 7.42 |
| ATATATATATATATATGTACTTATTTATTTATTTAT [XGTACX_site4645] | 9.22 |
| TATAAAATTATTAAACAAGAAAATTTTAGGTAATAC [TGCATGCA_negctrl_site568] | 7.03 |
| ATAATATATTTTTGAACACACAATATATATATATAT [CACACA_site4124] | 9.1 |

| Sequence | gcPBM binding intensity (ln) |
| --- | --- |
| ATATAAATATGACACACACACAAAAAAAATAAAGAC [CACACA_site6208] | 7.97 |
| TATAATATATTTTGATGTACAAATATATTATATATA [XGTACX_site8633] | 7.04 |
| TTGATAAAACGTTATGCACACGTACGTGGGTATTTA [CACACA_site8445] | 7.23 |
| AGTATACACGAACACACACACACATATATAAATATA [CACACA_site6913] | 7.04 |
| TAAAGTATTACAACCACACACACACCCATATATTAT [CACACA_site4159] | 7.09 |
| TAAGTGTATGTATATAAACACACATACATATATATA [CACACA_site8397] | 7.19 |
| TAATTTAAAAATTCCTGTACTCAGTTTTTTCTATTT [XGTACX_site4961] | 6.64 |
| ATTTTTTTATACAATTTTATATATTAAATATTATAA [GTGCAC_negctrl_site86] | 6.95 |
| TGTATTTTTAACATATGTACGAATAGCACGTGTTAT [XGTACX_site3640] | 7.14 |
| TAAAAATGGGAGGGGTGTACTACACAATAAAATTAT [XGTACX_site5641] | 7.88 |
| TATTTTATATGATAGGTGCATTTTTTTTTTTTTTTT [GTGCAC_site9757] | 10.8 |
| ATTTTTTCAAAATGGAAAACTTATCAGTGAAAAAAA [CACACA_negctrl_site1087] | 6.87 |
| CTTGACCCCCTTTGTTGTACTGACATTTGTGAGCTT [XGTACX_site591] | 7.34 |
| ATATGTATTGGAGTGTGTACATATATATATATTTAT [XGTACX_site5633] | 7.34 |
| TTAATAATGTTTTATTGTACTTTTTTGTGGGTTTAT [XGTACX_site5670] | 7 |
| GTGCTACATCATATGTGTACATATACCAAACTGTAT [XGTACX_site8233] | 7.52 |
| ATATACATTCAAGGCTGTACACTATATTTTTTTTTT [XGTACX_site6514] | 7.03 |
| TTTGTGTAAAGAATCAGTACATATAATATATATATA [XGTACX_site1972] | 8.28 |
| TTTGTTGACAGACACACACACATACATATATATATA [CACACA_site2288] | 8.9 |
| TATAATAATATAATGGTGCATGTATATAACCATATA | 10.7 |
